# Results: PubChem BioAssay AID1030 (National Center for Advancing Translational Sciences (NCATS), 2008)
# About 16,000 (7.3%) of roughly 220,000 compounds were called active. Inconclusive results, whose numbers are uncertain, are shown with a selection of clear calls. Calls come from the whole dose curve; as a rule, active = well fitted inhibition curve with a large enough effect (not every such curve was filed as active); inconclusive = small, poorly fitted or top-dose-only effect, or another doubt; inactive = no such curve, though single readings can be large or run the other way. Potencies of inconclusive entries are left out as doubtful fits.
# Molecular target: Aldehyde dehydrogenase 1A1 (Homo sapiens) (UniProt P00352)
# Chain of UniProt P00352 (P00352 whole entry, looked up): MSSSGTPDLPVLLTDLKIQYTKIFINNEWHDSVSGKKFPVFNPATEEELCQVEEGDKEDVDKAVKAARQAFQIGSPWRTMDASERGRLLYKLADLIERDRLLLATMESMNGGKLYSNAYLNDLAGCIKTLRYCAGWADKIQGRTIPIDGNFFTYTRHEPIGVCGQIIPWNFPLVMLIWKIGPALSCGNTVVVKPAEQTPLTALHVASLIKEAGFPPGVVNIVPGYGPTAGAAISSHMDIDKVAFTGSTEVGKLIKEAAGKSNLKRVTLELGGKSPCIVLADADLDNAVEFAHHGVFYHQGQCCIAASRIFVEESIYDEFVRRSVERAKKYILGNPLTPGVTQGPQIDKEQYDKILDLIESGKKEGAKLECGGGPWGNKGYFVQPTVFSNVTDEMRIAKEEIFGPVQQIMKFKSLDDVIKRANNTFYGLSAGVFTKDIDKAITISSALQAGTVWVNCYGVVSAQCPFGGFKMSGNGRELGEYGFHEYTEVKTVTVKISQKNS
# Assay: qHTS Assay for Inhibitors of Aldehyde Dehydrogenase 1 (ALDH1A1)
# Conditions: Purified ALDH1A1, NADH fluorescence, propionaldehyde substrate; series mostly up to 75.3 µM
# Potency is the fitted concentration of half-maximal effect; tags give direction and shape of the fitted curve.
row,SMILES,Potency
1,CCS(=O)(=O)NCCc1cc2cc(C)c(C)cc2[nH]c1=O,"inconclusive [inhibitor, single point]"
2,O=C(c1cc(C(=O)c2ccco2)cc(C(=O)c2ccco2)c1)c1ccco1,"inconclusive [inhibitor, partial curve]"
3,S=C(Nc1ccc2nc(-c3ccccn3)c(-c3ccccn3)nc2c1)N1CCCCCC1,"inconclusive [inhibitor, single point]"
4,O=[N+]([O-])c1c(NCCCO)cc(Sc2nc3ccccc3s2)c2nonc12,active: 15.8 µM
5,COc1ccc(NC(=O)COc2ccc(C(=O)OCC(=O)N(C(C)C)C(C)C)cc2OC)cc1,inactive
6,CN(C)C(=O)CSc1nnc(-c2ccncc2)n1Cc1ccco1,"inconclusive [inhibitor, full curve, poor fit]"
7,O=C(O)c1ccccc1SC1CC(=O)N(c2ccc3c(c2)OCO3)C1=O (stereo not drawn),active: 1.26 µM
8,O=C(O)CC1(CC(=O)Nc2ccc3c(c2)OCCCO3)CCCCC1,"inconclusive [inhibitor, single point]"
9,COc1ccc(OC)c2[nH]c(=O)c(CCNS(=O)(=O)c3ccc(C)cc3)cc12,"inconclusive [inhibitor, partial curve]"
10,CC(OC(=O)c1ccc(Cl)c(S(=O)(=O)Nc2ccc(F)cc2)c1)C(=O)NC(N)=O (stereo not drawn),inactive
11,Cc1ccc(/C(O)=C2\C(=O)C(=O)N(Cc3cccnc3)C2c2ccccc2[N+](=O)[O-])cc1 (stereo not drawn),active: 7.08 µM
12,CCc1c(C)nc(SCC(=O)N2CCN(c3ccccc3)CC2)[nH]c1=O,"inconclusive [inhibitor, partial curve, poor fit]"
13,O=C(NCc1ccc2c(c1)OCO2)C1CC(=O)N(CCc2ccccc2)C1 (stereo not drawn),"inconclusive [inhibitor, single point]"
14,O=C(O)C1=C(OCc2ccccc2)C(=O)NCC1,inactive
15,CCCc1noc2c1C(c1ccoc1)C(C#N)=C(N)N2 (stereo not drawn),"inconclusive [inhibitor, partial curve]"
16,Cc1ccc(-c2cc(C(=O)OCC(=O)N(C)C3CCS(=O)(=O)C3)c3ccccc3n2)o1 (stereo not drawn),"inconclusive [inhibitor, full curve]"
17,COc1cc2c(=O)n(CC3CCCO3)c(=O)n(CC(=O)Nc3ccc(F)cc3F)c2cc1OC (stereo not drawn),"inconclusive [inhibitor, partial curve]"
18,O=C(CN1CCc2ccccc21)NCc1ccccc1Cl,"inconclusive [inhibitor, single point]"
19,O=C(O)c1ccc(Nc2ncnc3scc(-c4ccccc4)c23)cc1,"inconclusive [inhibitor, single point]"
20,Cn1c(CSCc2ccccc2Cl)n[nH]c1=S,"inconclusive [inhibitor, partial curve]"
21,CC1(C)NC(=O)N(CC(O)CN2C(=O)NC(C)(C)C2=O)C1=O,inactive
22,CCOc1ccc(C2C(C(C)=O)=C(O)C(=O)N2CCc2c[nH]c3ccccc23)cc1 (stereo not drawn),inactive
23,COc1ccccc1OCc1ccc(C(=O)NCc2ccco2)o1,inactive

row,SMILES,Potency
1,O=C(c1ccccc1)c1ccc(OC(=O)N2CCCC2)cc1,inactive
2,CSCCC(NC(=O)OCc1ccccc1)C(=O)O (stereo not drawn),inactive
3,O=C(C(c1ccccc1)c1ccccc1)N1CCN(c2ccccn2)CC1,"inconclusive [inhibitor, single point]"
4,Cc1cccc(C)c1-n1c(C)cc(/C=N\Nc2ccc([N+](=O)[O-])cn2)c1C,active: 10 µM
5,COc1c2ccoc2cc2oc(C)cc(=O)c12,inactive
6,O=C(c1ccc(N2CCCCC2)c([N+](=O)[O-])c1)N1CCN(c2ccccn2)CC1,"inconclusive [inhibitor, single point]"
7,CC(=O)c1cccc(S(=O)(=O)N(Cc2cc3cc4c(cc3[nH]c2=O)OCCO4)CC2CCCO2)c1 (stereo not drawn),"inconclusive [inhibitor, single point]"
8,CCOC(=O)c1sc(NC(=O)/C=C/c2cnn(CC)c2C)c(C(=O)OCC)c1C,"inconclusive [inhibitor, partial curve]"
9,O=C(Cn1ncc(Cl)c(Cl)c1=O)N1CCN(Cc2ccccc2)CC1,active: 28.2 µM
10,O=C1CSC(c2cn(-c3ccccc3)nc2-c2cc3ccccc3oc2=O)N1Cc1cccnc1 (stereo not drawn),"inconclusive [inhibitor, partial curve]"
11,CCC1CCCCN1S(=O)(=O)c1ccc(C(=O)Nc2nnc(-c3ccccc3Cl)o2)cc1 (stereo not drawn),inactive
12,Cc1cc2ncc(Cl)nc2cc1C,"inconclusive [inhibitor, single point]"
13,CCOC(=O)C1=C(C)NC(SCC(=O)OC)=C(C#N)C1c1ccc(C(=O)OC)cc1 (stereo not drawn),"inconclusive [inhibitor, partial curve]"
14,Cc1oc2c(cc(NS(=O)(=O)c3cccs3)c3ccccc32)c1C(=O)OC(C)C,"inconclusive [inhibitor, single point]"
15,C#CCOCCOCCOCCNc1nc(N2CCOCC2)nc(N2CCN(C(=O)[C@H](CCC(=O)O)n3cc(C(N)[C@H](C)CC)nn3)CC2)n1 (stereo partly drawn),"inconclusive [inhibitor, single point]"
16,Cc1cc(NC(=O)CCN2CCC(C(N)=O)CC2)ccc1Br,"inconclusive [inhibitor, single point]"
17,CC(C)(C)NC(=O)NC(=O)COC(=O)CNS(=O)(=O)c1ccc(Br)cc1Cl,inactive
18,COc1cc(/C=N\n2cnnc2)ccc1OCC(=O)Nc1ccc(C)cc1,"inconclusive [inhibitor, single point]"
19,CC(C)(C)OC(=O)N/N=C\c1ccc([N+](=O)[O-])s1,"inconclusive [inhibitor, single point]"
20,Cc1c(Cc2ccccc2)c(=O)oc2c(O)c(O)ccc12,inactive
21,Cc1cc(Cl)ccc1NNC(=O)c1c(C)noc1C,"inconclusive [inhibitor, single point]"
22,CCNc1ncc2nc(-c3cc(F)cc(F)c3)c(=O)n(CCC#N)c2n1,"inconclusive [inhibitor, full curve]"
23,COc1ccc2c(c1)-c1nc(N)sc1CC2,"inconclusive [inhibitor, single point]"

row,SMILES,Potency
1,COc1ccc(N=C2SC(CC(=O)Nc3ccccc3)C(=O)N2CC2CCCO2)cc1 (stereo not drawn),"inconclusive [inhibitor, single point]"
2,Cc1nn(C(C)C(=O)NCC2CCCO2)c(=O)c2cc3occc3n12 (stereo not drawn),"inconclusive [inhibitor, full curve]"
3,COc1ccc(C)cc1S(=O)(=O)N(CC(=O)Nc1cccc([N+](=O)[O-])c1)c1ccccc1,"inconclusive [inhibitor, single point]"
4,Cc1sc(NC(=O)c2cccs2)c(C(=O)OC(C)C)c1C,"inconclusive [inhibitor, single point]"
5,COc1cc(C2CC(=O)N3CN(c4ccccc4C)CSC3=C2C#N)cc(OC)c1OC (stereo not drawn),active: 2.82 µM
6,O=C(CCCn1c(=O)c2ccccc2n(CC(=O)NCc2ccco2)c1=O)NCc1ccco1,"inconclusive [inhibitor, single point]"
7,COc1ccccc1-n1c(SCC(=O)O)nnc1-c1ccc(S(=O)(=O)N2CCCCC2)cc1,active: 12.6 µM
8,COC(=O)c1sccc1N/C=C(\C#N)S(=O)(=O)C(C)(C)C,"inconclusive [inhibitor, single point]"
9,CCCn1c(=O)[nH]c(=O)c2c1nc(-c1ccc(OC(F)F)cc1)n2CCN1CCOCC1,"inconclusive [inhibitor, single point]"
10,Cc1ccc2[nH]c3c(c2c1)CN(C(=O)CN1c2ccc(F)cc2CCC1C)CC3 (stereo not drawn),"inconclusive [inhibitor, partial curve]"
11,Cc1ccc(-n2c(=O)c3c4c(sc3n3c(=S)[nH]nc23)CCC4)cc1,"inconclusive [inhibitor, single point]"
12,Cc1ccc(NC(=O)CN(c2ccc(Cl)cc2)S(=O)(=O)c2cc([N+](=O)[O-])ccc2Cl)c(C)c1,"inconclusive [inhibitor, partial curve]"
13,O=C(O)CCC(=O)N1CCc2cc(S(=O)(=O)Nc3ccc4c(c3)OCCO4)ccc21,inactive
14,O=C1C(Nc2cccc(O)c2)=C(N2CCCCC2)C(=O)c2ccccc21,"inconclusive [inhibitor, partial curve]"
15,COc1ccccc1NC(=O)C(=O)N/N=C(\C)CC(=O)Nc1ccc(OCc2ccccc2)cc1,inactive
16,CCOC(=O)C1=C(CC)Nc2ccccc2N=C1NC(=O)Cn1cnc2ccccc2c1=O,inactive
17,CCOC(=O)c1c(NC(=O)CSc2nnc(-c3ccco3)o2)sc(C)c1C,active: 8.91 µM
18,CCOC(=O)CN1C(=O)SC(Nc2ccc(C)cc2)C1=O (stereo not drawn),"inconclusive [inhibitor, partial curve]"
19,COc1cc(C(=O)Nc2ccc(Oc3ncnc4sc(-c5ccccc5)cc34)cc2)cc(OC)c1OC,"inconclusive [inhibitor, single point]"
20,COc1cccc(/C=N/Nc2nccnc2Cl)c1O,inactive
21,COc1ccc2[nH]c(=O)cc(C(=O)O)c2c1,"inconclusive [inhibitor, single point]"
22,COC(=O)Nc1ccccc1C(=O)N1CCC(O)(c2ccc(Cl)cc2)CC1,"inconclusive [inhibitor, single point]"
